Assay results as given in PubChem BioAssay AID652104 (National Center for Advancing Translational Sciences (NCATS), 2013).
Among all 410,000 compounds or so, about 7,200 (1.8%) were called active. Inconclusive means that the source gave no clear call. Such entries were picked first, then a sample of the others. The call rests on the fitted dose curve; in most records, active means well fitted activation curve with a large enough effect; inconclusive means small, poorly fitted or top-dose-only effect, or another doubt; inactive means no such curve, though single readings can be large or run the other way. Potencies of inconclusive entries are doubtful fits and often do not repeat.

Assay: qHTS of TDP-43 Inhibitors; further: nearly all actives have a fitted effect of over 50% in size; on growth rescue (activation): % of control where 0% means no effect
Conditions: TDP-43 expressing yeast growth rescue, BacTiter-Glo, 24 h; growth rescue (activation): at 46.1 µM (top of the series) unless noted
In short: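 Growth rescue of TDP-43-toxic yeast measured as ATP luminescence (BacTiter-Glo). Cells grown to mid-log in raffinose, induced in galactose at OD600=0.02, exposed to compound 24 hr at 30 deg C.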
Potency means the concentration at half of the fitted maximal effect; tags describe the fitted curve by direction and shape.

Potency, active:
COc1ccc(-n2nc([N+](=O)[O-])c(=NCCc3ccccc3)n2O)cc1 12.6 µM, COC(=O)c1ccc(OCC2c3cc(OC)c(OC)cc3CCN2C(=O)Cc2ccccc2)cc1 (stereo not given) 20 µM, O=C(C#Cc1ccccc1)c1ccc([N+](=O)[O-])cc1 11.2 µM, COc1ccc2nc3cccc(OC)c3nc2c1 22.4 µM

Potency, inconclusive:
CCCC(C)NC(=O)c1cc(C(=O)OC)cc([N+](=O)[O-])c1 (stereo not given) 6.31 µM [activator, full curve], COc1ccc(N2CC(NC(=O)c3ccc(S(=O)(=O)N4CCOCC4)cc3)CC2=O)cc1OC (stereo not given) 0.501 µM [activator, full curve, poor fit], COc1ccc2c(c1)cc1n2CCN=C1NCCO 1 µM [activator, full curve, poor fit], N#Cc1ccc(OCC(=O)NNC(=S)NC(=O)C2CC2)cc1 11.2 µM [activator, partial curve], O=C(c1ccc(-c2cc(Cl)ccc2Cl)o1)N1CCOCC1 22.4 µM [activator, partial curve], NC(=O)c1cc([N+](=O)[O-])ccc1NCc1ccc(N)cc1 2.82 µM [activator, full curve, poor fit], Cc1ccc(C)c(N2CCN(C(=O)CCCn3c(=O)c4cccn4c4cccnc43)CC2)c1 35.5 µM [activator, single point], C=CCOc1ccc(/C=N/O)cc1Cl 10 µM [activator, partial curve], COc1cccc(-c2ncc3ccccc3c2COC(=O)N2CCCCC2)c1 11.2 µM [activator, partial curve], O=C(NCc1ccc(F)cc1)c1cc(-c2ccc(Cl)cc2)n[nH]1 7.08 µM [activator, full curve, poor fit], CC(C)N1C(=O)c2ccccc2N(Cc2ccccc2)S1(=O)=O 20 µM [activator, partial curve], CCCc1cnc(N2CCN(C(=O)c3ccc(OC)cc3)CC2)nc1 3.98 µM [activator, full curve], O=C(NCCc1nc(-c2ccccc2Cl)no1)c1ccccc1 14.1 µM [activator, single point], CN(CC(=O)Nc1ccc(F)c(F)c1F)C(=O)C1COc2ccccc2O1 (stereo not given) 3.98 µM [activator, full curve, poor fit], CCOC(=O)CSc1nc2ccccc2c(=O)n1Cc1ccco1 12.6 µM [activator, single point], CCOc1ccccc1C(=O)Nc1cccc(-c2ccc3nncn3n2)c1 17.8 µM [activator, single point], N#Cc1sc2nc3c(cc2c1N)CCCC3 1.41 µM [activator, full curve], CCN(c1ccccc1)S(=O)(=O)c1cccc(C(=O)Nc2cccc(C)n2)c1 35.5 µM [activator, single point], O=S(=O)(NCC(c1cccs1)S(=O)(=O)c1ccccc1)c1ccc(F)c(C(F)(F)F)c1 (stereo not given) 1.41 µM [activator, full curve], CC(=O)N1c2ccc(S(=O)(=O)N3CCCC(C(=O)Nc4ccc(F)cc4)C3)cc2CC1C (stereo not given) 35.5 µM [activator, partial curve], O/N=C/c1cc(Br)ccc1OCc1ccccc1F 35.5 µM [activator, single point], O=C(c1cc(-c2cccs2)on1)N1CCCc2ccccc21 35.5 µM [activator, single point], CC(=O)N1N=C(c2ccc(C)o2)CC1c1ccc(Br)cc1 (stereo not given) 25.1 µM [activator, single point], O=[N+]([O-])c1cc2c(cc1/C=N/Nc1nc(N3CCCC3)nc(N3CCCC3)n1)OCO2 2.82 µM [activator, full curve], COc1cc(C)nc(OCCNC(=O)COc2ccc(Cl)cc2C)n1 35.5 µM [activator, single point], Cc1cc(=O)c2n(Cc3ccc(Cl)cc3)nc[n+]2[nH]1 14.1 µM [activator, partial curve], CC1CCCN(c2c([N+](=O)[O-])cc(C(=O)O)cc2[N+](=O)[O-])C1 (stereo not given) 11.2 µM [activator, partial curve], COc1ccc(OCC(=O)NCc2ccc3c(c2)CCN3C(=O)c2ccc(F)cc2)cc1 35.5 µM [activator, single point], Cc1c(Cl)cccc1NCC(=O)Nc1ccc(Cl)cc1F 1.12 µM [activator, full curve, poor fit], CC(C)(C)OC(=O)N1CCC(c2c(C(=O)NCCc3ccccc3)cnn2-c2ccc(F)cc2)CC1 15.8 µM [activator, single point], COc1ccc(Cl)cc1NC(=O)C1(c2cccs2)CCOCC1 11.2 µM [activator, single point], CSc1ccc(/C=c2\s/c(=C\C(=O)C(C)(C)C)n(CC(=O)NCCC3=CCCCC3)c2=O)cc1 3.55 µM [activator, partial curve], O=C(Oc1ccccc1N1CCOCC1)c1ccccc1 12.6 µM [activator, single point], Cc1cc(Cl)c2oc(C(=O)N3CCC(O)(c4ccccc4)CC3)c(C)c2c1 35.5 µM [activator, single point], Cn1ncc2c(N3CCC(Cc4ccccc4)CC3)ncnc21 14.1 µM [activator, partial curve], COC(=O)c1ccc2nc(-c3ccco3)c(Cc3ccccc3)n2c1 22.4 µM [activator, single point], O=c1ccc(/C=C/c2ccccc2)nn1Cc1ccccc1Cl 35.5 µM [activator, single point], CC1C(=O)N(Cc2cn(CCC3OCCO3)nn2)CCS(=O)(=O)N1Cc1ccc(-c2ccccc2)cc1 (stereo not given) 0.794 µM [activator, full curve, poor fit], COc1cc(NC(=O)COCc2cc(-c3ccc4c(c3)OCO4)on2)cc(OC)c1 0.562 µM [activator, full curve, poor fit], O=[N+]([O-])c1cccc(Cl)c1NCCNS(=O)(=O)c1ccc(Cl)cc1 14.1 µM [activator, partial curve], COCCCNC(=S)N1CCN(c2nc3ccccc3s2)CC1 22.4 µM [activator, partial curve, poor fit], CC[C@]12c3[nH]c4ccc(Cl)cc4c3CCN1C(=O)[C@@H](CC(=O)NCCCN(C)C)C[C@@H]2C(=O)N1CCN(C(=O)c2ccco2)CC1 5.62 µM [activator, single point], Cc1ccc(SCC2(O)CCN(C(=O)c3ccc(Cl)cc3)CC2)cc1 20 µM [activator, single point], Cc1cc(F)c(F)c(C(=O)N2CCCCC2C)c1Cl (stereo not given) 35.5 µM [activator, partial curve]

Potency, inactive:
COc1ccc(-c2[nH]c(-c3cccc(OC)c3)nc2SCC(=O)NC2CCCC2)cc1

Growth rescue (activation), inactive:
Cc1ccc(C(=O)Nc2nnc(S(=O)(=O)N3CCc4ccccc43)s2)cc1 15%, CC(C)(C)C(=O)/C=C(\N)c1ccncc1 11.3%, COc1ccc(NC(=O)c2cc(CN3CCCC3)on2)cc1Cl 3.73%, CCOC(=O)[C@]12CCCC=C1N(Cc1ccc(Cl)cc1Cl)C(=O)[C@H](CC(=O)NCc1cccs1)C2 18%, Cc1nn(C)c(C)c1/C=C/C(=O)O 16.8%, Cc1cc(C)c(-n2c(SCc3nc4ccccc4s3)n[nH]c2=O)c(C)c1 1.58%, CCNc1nc(N2CCOCC2)nc(N(c2ccccc2)c2ccccc2)n1 -13.2%, COCCN(CCOC)Cc1cc(=O)oc2cc3c(cc12)CCC3 1.14%, Cc1cccc(Cc2c(C)nc3nc(SCC(=O)NCc4ccccc4)nn3c2C)c1 5.1%, CCN(Cc1ccccc1)S(=O)(=O)c1cc(C(=O)Nc2cc(Cl)cc(Cl)c2)ccc1F 15.4%, Cc1ccc(C2=NC3(CCCC3)N=C2SCC(=O)Nc2ccc3c(c2)OCCO3)cc1 2.08%, Cn1cnnc1SCC(=O)Nc1ccc(C#N)cc1 18.9%, Cc1cc(C)c(S(=O)(=O)Nc2ccc(-c3ccc(N4CCCCCC4)nn3)cc2)c(C)c1 6.46%, CCn1cc(S(=O)(=O)c2ccccc2)c(=O)c2cc(F)c(N3CCN(c4ccccc4)CC3)cc21 15.3%, Cc1ccc(Nc2nc(N)c([N+](=O)[O-])c(NCc3ccccc3)n2)cc1 5.39%, Nc1nc(Cl)cc(N2CCCC2)n1 18.1%, CCC(=O)Nc1ccc2c(c1)C(=O)N(C1CCCCC1)C2=O 1.57%

Growth rescue (activation), inconclusive:
CN(C)/C=C/C(=O)c1ccc(-c2ccc(Cl)cc2Cl)o1 -51.5% [activator], Oc1ccc(N=Nc2ccc3ccccc3c2)cc1 -90% [activator], CN1CCc2nc3sc(C(=O)C45CC6CC(CC(C6)C4)C5)c(N)c3cc2C1 -71.9% [activator], Nn1c(COc2ccccc2F)nnc1SCC(=O)NC1CCS(=O)(=O)C1 (stereo not given) 37.1% [activator]
